Data as given in PubChem BioAssay AID1508623 (National Center for Advancing Translational Sciences (NCATS), 2021).
The whole screen tested about 48,000 compounds, of which about 450 (0.94%) were called active. Another 19% or so got no clear call; they are omitted. Calls follow the shape of the dose curve; as a rule, active = well fitted inhibition curve with a large enough effect; inconclusive = small, poorly fitted or top-dose-only effect; inactive = no such curve, though single readings can be large or run the other way. This is one part of the list.

Assay: Primary qHTS for Identification of Small Molecule Inhibitors of Huntingtin Promoter Activity; also: nearly all actives have a fitted effect of over 50% in size
Conditions: HEK293 HTT promoter firefly luciferase reporter (activity 0% = vehicle and -100% = no light), 24 h; series mostly up to 57.5 µM; activity change, negative = inhibition: at the top concentration
In short: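 Quantitative HTS used concentration series of up to 57.5 uM final on HEK293 luciferase reporter cells, 24 h at 37 degrees C. Readout was Dual-Glo firefly luminescence.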

Activity change, negative = inhibition, inactive:
CC(C)=CCC/C(C)=C/CO 1.44%
CC(=O)N1CCc2cc(Br)cc(S(=O)(=O)CCC(=O)NCCc3ccc(Cl)cc3)c21 -13.3%
O=C(CCCn1c(=O)c2ccccc2n(Cc2cccc(F)c2)c1=O)NCc1ccccc1Cl 0.473%
CCCCNC(=O)c1sc2ncccc2c1-n1cccc1 1.18%
Cc1cc2oc(C(=O)Nc3c(C)n(C)n(-c4ccccc4)c3=O)cc(=O)c2cc1C -6.32% [at 11.5 µM]
COC(=O)C(CCSC)NC(=O)c1cc2c(n(-c3ccccc3)c1=O)CC(C)(C)CC2=O (stereo unspecified) 0.795%
CCOC(=O)Cn1c(=O)n(-c2ccc(Cl)cc2)c2nc(-c3ccc(Cl)cc3)nc(C(N)=O)c21 -4.07%
COc1ccc(NC(=O)CN(c2ccc(C)cc2)S(=O)(=O)c2cccs2)cc1 -3.42%
COc1cc(CNc2ccc3[nH]c(=O)[nH]c3c2)cc(Cl)c1OCc1ccc(F)cc1 -12.7%
Cc1ccc2c(=O)cc(C(=O)Nc3nc4ccc(Cl)cc4s3)oc2c1 15.7%
Cc1cccc(C(=O)Nc2ccccc2OCc2cc(=O)n3c(C)csc3n2)c1 1.02%
O=C(Nc1ccc(C(=O)OCc2cc(=O)n3c4c(sc3n2)CCCC4)cc1)c1cccc(F)c1 -5.28%
COc1ccc(CCNc2nc3c(c(=O)n(C)c(=O)n3C)n2Cc2ccccc2Cl)cc1OC -29.5%
O=C(Cn1cc(S(=O)(=O)Cc2ccccc2F)c2ccccc21)NCc1ccccc1 -11.3%
Cc1csc2nc(-c3cccc(NC(=O)c4c(F)cccc4F)c3)cn12 -4.41%
COc1cc(OC)cc(N2C(=O)CSC23C(=O)Nc2ccccc23)c1 (stereo unspecified) -22.7%
COc1ccc(C(=O)OCc2cc(=O)n3nc(C4CC4)sc3n2)cc1OC -21.5%
CCCNC(=O)CSc1cn(CC(=O)N2CCCCCC2)c2ccccc12 -24.6%
O=C(CSc1nc2sc3c(c2c(=O)[nH]1)CCCC3)Nc1ccccc1F -22.3%
CC(C)Oc1ccc(CNS(=O)(=O)c2ccc(-c3cc(C(F)(F)F)on3)s2)cc1 6.07%
Cc1ccc(NC(=O)CCn2cnc3onc(-c4ccc(F)cc4)c3c2=O)c(Br)c1 5.02%
Cc1ccc2oc(C(=O)Nc3ccc(S(=O)(=O)Nc4nc(C)cc(C)n4)cc3)cc(=O)c2c1 -20.1%
Cc1ccc2nc(CN3CCN(S(=O)(=O)c4ccc(F)cc4)CC3)oc2c1 -34.9%
COc1ccc(CCNC(=O)CCn2c(=O)c3ccccc3n(Cc3ccccc3C)c2=O)cc1OC -10.3%
COc1ccc(-c2nc3ccccc3o2)cc1NC(=O)c1ccc(-c2cccc(Cl)c2C)o1 4.86%
Cc1c(-c2nc(-c3ccc4c(c3)OCO4)no2)nnn1-c1cccc(C(F)(F)F)c1 8.28%
